The source gives no read counts; variants with many changes may rest on few reads.

First the molecules themselves.
B1: LINE1-full (parent)
chain: UACGUAGGUGGUUUUCCCCUGAUAGUGCUAAGGGGGCCUGGAAGUUUGGACUGGGCAGAGCUCAACACAGCGUGGCAAAGUGGCUGUGGCUAGACUGCCUCUCUGGAUUCCUCGUCACUCAGCAGGGCAUCUCUGAGAGAAAUGCC

Variants of B1 are the subject of this data set. Briefly: self-cleavage, relative activity (ratio to wild type); higher = more cleavage; in vitro, sequencing; the parent is a self-cleaving ribozyme.
As to UACGUAGGUGGUUUUCCCCUGAUAGUGCUAAGGGGGCCUGGAAGUUUGGACUGGGCAGAGCUCAACACAGCGUGGCAAUGUGGCCAUGGCUAGACUGCCUCUCUGGAUUCCUCGUCACUCAGCAGGGCAUCUCUGAGAGAAAUGCC [A79U U85C G86A], the self-cleavage worked out at 0.06.
To UACGUAGGUGGUUUUCCCCUGAUAGUGCUAAGGGGGCCUGGAAGUUUGGACUGGGCAGAGCUCAACACAGCGUGGCAAGGUGGCUGUGGCUAGACUGCCUCUCUGGACUCCUCGUCACUCAGCAGGGCAUCUCUGAGAGAAAAGCC [A79G U108C U143A] belongs 1.17; to UACGUAGGUGGUUUUCCCCUGAUAGUGCUAAGGGGGCCUGGAAGUUUGGACUGGGCAGAGCUCAACACAGCGUGGCAAAGAGGCUGUGGCUAGACUGCCUCUCUGGAUUCCUCGUCACUCAGCAGGGCAUCUCUAAGAGAGAUGCC [U81A G135A A141G], 2.26.
For UACGUAGGUGGUUUUCCCCUGAUAGUGCUAAGGGGGCCUGGAAGUUUGGACUGGGCAGAGCUCAACACAGCGUGGCAAUGAGGCUGUGGCUAGACUGCCUCUCCGGAAUCCUCGUCACUCAGCAGGGCAUCUCUGAGAGAAAUGCC [A79U U81A U104C U108A] the value was 1.96; for UACGUAGGUGGUUUUCCCCUGAUAGUGCUAAGGGGGCCUGGAAGUUUGGACUGGGCAGAGCUCAACACAGCGUGGCAAAGAGGCUGUGGCUAGACCGCCUCUCUGGACUUCUCGUCACUCAGCAGGGCAUCUCUGAGAGAAAUGCC [U81A U96C U108C C110U], 0.31.
UACGUAGGUGGUUUUCCCCUGAUAGUGCUAAGGGGGCCUGGAAGUUUGGACUGGGCAGAGCUCAACACAGCGUGGCAAAGAGGCUGUGGCUAGACUGCCCCUCUGGAUUCCUCGUCACUCAGCAGGGCAUCUCUGAGAGGAAUGCC [U81A U100C A140G]: the self-cleavage was 2.99.
To UACGUAGGUGGUUUUCCCCUGAUAGUGCUAAGGGGGCCUGGAAGUUUGGACUGGGCAGAGCUCAACACAGCGUGGCAAAAUGGCUGUGGCUAGACUGCCUCUCUGGAUUCCUCGUCACUCAGCGUGGCAUCUCUGGGAGAAAUGCC [G80A A124G G125U A136G] belongs 0.76.
Regarding UACGUAGGUGGUUUUCCCCUGAUAGUGCUAAGGGGGCCUGGAAGUUUGGACUGGGCAGAGCUCAACACAGCGUGGCAAGGUGGCUGUGGCUAGACUGCCUCUCUGGAUUCCUCGUCACCCAGCGGGGCAUCUCUGAGAGAAAUGCC [A79G U119C A124G], the self-cleavage turned out to be 2.68.
To UACGUAGGUGGUUUUCCCCUGAUAGUGCUAAGGGGGCCUGGAAGUUUGGACUGGGCAGAGCUCAACACAGCGUGGCAAUGUGGCUGUGGCUAGACUGCCUCUCUGGAUUCUUCGUCACUCAGCAGGGCAACUCUGAGAGAAAUGCC [A79U C111U U130A] belongs 2.
To UACGUAGGUGGUUUUCCCCUGAUAGUGCUAAGGGGGCCUGGAAGUUUGGACUGGGCAGAGCUCAACACAGCGUGGCAAAGAGGCUGUGGCUAGACUGCCUCACUGGAUUCCUCGUCACUCAGCAGGGCACCUCUGAGAGAAAUGCC [U81A U102A U130C] belongs 2.78.
For UACGUAGGUGGUUUUCCCCUGAUAGUGCUAAGGGGGCCUGGAAGUUUGGACUGGGCAGAGCUCAACACAGCGUGGCAAAGAGGCUGUGGCAAGACUGCCUCUCUGGAUUCCUCGUCUCUCAGCAGGGCAUCUCUGAGAGAAAUGCC [U81A U91A A117U] the value was 0.69.
UACGUAGGUGGUUUUCCCCUGAUAGUGCUAAGGGGGCCUGGAAGUUUGGACUGGGCAGAGCUCAACACAGCGUGGCAAAAUGGCUGUGGCUAGACUGCCCCUCUGGAUUCCUCGUCACUCAGCAGGGCAUCUCUGAGAGAAAAGCC [G80A U100C U143A]: the self-cleavage is 1.96.
For UACGUAGGUGGUUUUCCCCUGAUAGUGCUAAGGGGGCCUGGAAGUUUGGACUGGGCAGAGCUCAACACAGCGUGGCAAUGUGGCUGUGGCUAGACUGCCUCUCUGGACUCCUCGCCACUCAGCAGGGCAUCUCUGUGAGAAAUGCC [A79U U108C U115C A136U] the value was 2.17; for UACGUAGGUGGUUUUCCCCUGAUAGUGCUAAGGGGGCCUGGAAGUUUGGACUGGGCAGAGCUCAACACAGCGUGGCAAAGAGGCUGCGGCUAGACUGCCUCUCUGGAUUCCUCGUCACUCAGCAGGGCUUCUCUGAGAGAAAUGCC [U81A U87C A129U], 0.25; for UACGUAGGUGGUUUUCCCCUGAUAGUGCUAAGGGGGCCUGGAAGUUUGGACUGGGCAGAGCUCAACACAGCGUGGCAAAGAGGCUGAGGCUAGACUGCCUCUCUGGAUUCCUCGUCACUCAGCGGGGCAUCUCUGAGAGAAAUGCC [U81A U87A A124G], 0.26.
Turning to UACGUAGGUGGUUUUCCCCUGAUAGUGCUAAGGGGGCCUGGAAGUUUGGACUGGGCAGAGCUCAACACAGCGUGGCAAAAUGGCUGUGGCCAGACUGCCUCUCUGGAUUCCUCGCCACUCAGCAGGGCAUCUCUGUGAGAAAUGCC [G80A U91C U115C A136U], the self-cleavage was found to be 0.84.
To UACGUAGGUGGUUUUCCCCUGAUAGUGCUAAGGGGGCCUGGAAGUUUGGACUGGGCAGAGCUCAACACAGCGUGGCAAGGUGGCUGUGGCUAGACUGCCUCUCUGGAUACCUCGUCACUCAGCAGGGCAUCUCUGAGAGAGAUGCC [A79G U109A A141G] belongs 1.58; to UACGUAGGUGGUUUUCCCCUGAUAGUGCUAAGGGGGCCUGGAAGUUUGGACUGGGCAGAGCUCAACACAGCGUGGCAAAGAGGCUGUGGCUAGACUGCCUCUCUGGAUUCCUCGUCACUCAGCAGGACGUCUCUGAGAGAAAUGCC [U81A G127A A129G], 2.1.
For UACGUAGGUGGUUUUCCCCUGAUAGUGCUAAGGGGGCCUGGAAGUUUGGACUGGGCAGAGCUCAACACAGCGUGGCAAUGUGGCUGUGGCUAGACUGCCUCCCUGGAUUCCUCGUCACUCAUCAGGGCAUCUCUGAGAGAAAUGCC [A79U U102C G122U] the value was 1.5.
To UACGUAGGUGGUUUUCCCCUGAUAGUGCUAAGGGGGCCUGGAAGUUUGGACUGGGCAGAGCUCAACACAGCGUGGCAAAGAGGCUGUGGCUAGACUGCCUCUCUGGAUUCCUCUUCACCCAGCGGGGCAUCUCUGAGAGAAAUGCC [U81A G114U U119C A124G] belongs 1.76.
As for UACGUAGGUGGUUUUCCCCUGAUAGUGCUAAGGGGGCCUGGAAGUUUGGACUGGGCAGAGCUCAACACAGCGUGGCAAGGUGGCUGUGGCUAGACUGCCUCUCUGGAUUCCCCGUCACUCAGCAGGGCAUCACUGAGAGAAAUGCC [A79G U112C U132A], the self-cleavage is 0.99.
For UACGUAGGUGGUUUUCCCCUGAUAGUGCUAAGGGGGCCUGGAAGUUUGGACUGGGCAGAGCUCAACACAGCGUGGCAAGGUGGCUGUGGCUAGACUGCCUCUCUGGAUUCCUCGUCACUCAGCAGGGCAACUCUGAGAGAGAUGCC [A79G U130A A141G] the value was 0.96.
To UACGUAGGUGGUUUUCCCCUGAUAGUGCUAAGGGGGCCUGGAAGUUUGGACUGGGCAGAGCUCAACACAGCGUGGCAAAGAAGCUGUGGCUAGACUGCCUCUCUGGAUUCCUCGUCACUCAGCAGGGCAUCUCUGAGAGAAACGCC [U81A G82A U143C] belongs 2.01; to UACGUAGGUGGUUUUCCCCUGAUAGUGCUAAGGGGGCCUGGAAGUUUGGACUGGGCAGAGCUCAACACAGCGUGGCAAAGAGGCCGUGGCUAGACUGCCUCUCUGCAUUCCUCGUCACUCAGCAGGGCAUCUCUGAGAGAAAUGCC [U81A U85C G106C], 0.14; to UACGUAGGUGGUUUUCCCCUGAUAGUGCUAAGGGGGCCUGGAAGUUUGGACUGGGCAGAGCUCAACACAGCGUGGCAAAAUGGCUGCGGCUAGACUGCCUCUCUGGAUUCCUCGUCACUCAGCAGGGCAUCUCUGAGAGAAGUGCC [G80A U87C A142G], 0.28.
As to UACGUAGGUGGUUUUCCCCUGAUAGUGCUAAGGGGGCCUGGAAGUUUGGACUGGGCAGAGCUCAACACAGCGUGGCAAUGUGGCUGUGGCUAGACUGCCUCUCUGGAUUCCUAGUCACUCAGCAUGGCAUCCCUGAGAGAAAUGCC [A79U C113A G125U U132C], the self-cleavage was 1.39.
To UACGUAGGUGGUUUUCCCCUGAUAGUGCUAAGGGGGCCUGGAAGUUUGGACUGGGCAGAGCUCAACACAGCGUGGCAAACCGGCUGUGGCUAGACUGCCUCUCUGGAUUCCUCGUCACUCAGCGGGGCAUCUCUGAGAGAAAUGCC [G80C U81C A124G] belongs 0.44; to UACGUAGGUGGUUUUCCCCUGAUAGUGCUAAGGGGGCCUGGAAGUUUGGACUGGGCAGAGCUCAACACAGCGUGGCAAAGAGGCUGCGGCUAGACUGCCUCACUGGAUUCCUCGUCGCUCAGCAGGGCAUCUCUGAGAGAAAUGCC [U81A U87C U102A A117G], 0.1; to UACGUAGGUGGUUUUCCCCUGAUAGUGCUAAGGGGGCCUGGAAGUUUGGACUGGGCAGAGCUCAACACAGCGUGGCAAUGUGGCUGUGGCUAGACUGCCUCAAUGGAUUCCUCGUCACUCAGCAGGGCAUCCCUGAGAGAAAUGCC [A79U U102A C103A U132C], 1.64.
As to UACGUAGGUGGUUUUCCCCUGAUAGUGCUAAGGGGGCCUGGAAGUUUGGACUGGGCAGAGCUCAACACAGCGUGGCAAGGUGGCUGUGGCUAGACUGCCUCUCUGGAUCCCUCGUCACUCAGCAGGGCGCCUCUGAGAGAAAUGCC [A79G U109C A129G U130C], the self-cleavage turned out to be 0.
To UACGUAGGUGGUUUUCCCCUGAUAGUGCUAAGGGGGCCUGGAAGUUUGGACUGGGCAGAGCUCAACACAGCGUGGCAAAAUGGCAGUGGCUAGACUGCCUCUCUGGAUUCCUCGUCACUCAGCAGGGCAUCUCUGAGAGAAAAGCC [G80A U85A U143A] belongs 0.08; to UACGUAGGUGGUUUUCCCCUGAUAGUGCUAAGGGGGCCUGGAAGUUUGGACUGGGCAGAGCUCAACACAGCGUGGCAAAAUGGCUGUGGCCAGACUGCCUCUCUGGAUUCCUCGUCACUCAGCAGGGCAUCUCCGAGAGAAAUGCC [G80A U91C U134C], 1.15; to UACGUAGGUGGUUUUCCCCUGAUAGUGCUAAGGGGGCCUGGAAGUUUGGACUGGGCAGAGCUCAACACAGCGUGGCAAAGAGGCUGUGGCUAGACUGCCUCUCUAGAUUCCUCGCCACUCAGCAGGGCACCUCUGAGAGAAAUGCC [U81A G105A U115C U130C], 2.79.
For UACGUAGGUGGUUUUCCCCUGAUAGUGCUAAGGGGGCCUGGAAGUUUGGACUGGGCAGAGCUCAACACAGCGUGGCAAAGAGGCUGUGGCUAGACAGCCUCUCUGGGUUCCUCGUCACUCAGCAGGGCAUCUCUGAGAGGAAUGCC [U81A U96A A107G A140G] the value was 0.07; for UACGUAGGUGGUUUUCCCCUGAUAGUGCUAAGGGGGCCUGGAAGUUUGGACUGGGCAGAGCUCAACACAGCGUGGCAAAUUGGCUGUGGCUAGACUGCCUCUCUGGAUUCCUCGUCGCUCAGCGGGGCAUCUCUGAGAGAAGUGCC [G80U A117G A124G A142G], 1.48.
For UACGUAGGUGGUUUUCCCCUGAUAGUGCUAAGGGGGCCUGGAAGUUUGGACUGGGCAGAGCUCAACACAGCGUGGCAAUGUGGCUGUGGCUAGACUGCCUCUCUGGAAUCCUCGUCACUCAGCAGGGCAUCUCUGAGGGAAAUGCC [A79U U108A A138G] the value was 1.5; for UACGUAGGUGGUUUUCCCCUGAUAGUGCUAAGGGGGCCUGGAAGUUUGGACUGGGCAGAGCUCAACACAGCGUGGCAAAGAGGCUGAGGCUAGGCUGCCUCUCUGGAUUCCUCGUCACUCAGCAGGGCAUCCCUGAGAGAAAUGCC [U81A U87A A94G U132C], 0.
For the variant UACGUAGGUGGUUUUCCCCUGAUAGUGCUAAGGGGGCCUGGAAGUUUGGACUGGGCAGAGCUCAACACAGCGUGGCAAGGUGGCUGUGGCUAGACUGCCUCUCCGGAUUCCUCGUCACUCAGCAGGGCAUCCCUGAGAGAAAUGCC [A79G U104C U132C], the self-cleavage amounted to 0.66.
For UACGUAGGUGGUUUUCCCCUGAUAGUGCUAAGGGGGCCUGGAAGUUUGGACUGGGCAGAGCUCAACACAGCGUGGCAAAGAGGCUGCGGCUAGACCGCCUCUCUGGAUUCCUUGUCACUCAGCAGGGCAUCUCUGAGAGAAAUGCC [U81A U87C U96C C113U] the value was 0.16.

The values above are taken from the RNAGym collection of RNA variant scans (doi:10.7554/elife.90254).
